# Molecular target: T1, FACT complex (SPT16/SSRP1), full length, untreated (human, UniProt Q9Y5B9; Q08945, phosphorylated as purified from insect cells; residues not printed | phosphorylated as purified from insect cells; residues not given)
# T1 construct: SPT16, FACT subunit; SSRP1, FACT subunit; His tags are followed by a TEV site; cleavage is not described; also called FAcilitates Chromatin Transcription complex; full-length FACT; source: Tnao38 insect cells (baculovirus), purified (HisTrap, HiTrap Q, SEC)
# Assay: pull-down; amylose resin, MBP-CENP-C fusion proteins (fragments or full-length ^MBPCENP-C^EGFP) as baits, FACT or FACT constructs as preys; 3 µM each; 20 mM Hepes pH 6.8, 300 mM NaCl, 2.5% glycerol, 1 mM TCEP, 0.01% Tween; 4°C
# Details: both partners purified
row,binding result,Binder
1,binds,"^MBPCENP-C^[…]-His (domain or fragment, not shown: MBP, N-terminal, kept) not shown"
2,binds,"^MBPCENP-C^[…]-His (domain or fragment, human, not shown: MBP, N-terminal, kept) EMYSKNAEKPSRSKRTIKQKQRRKF[sequence of about 120 residues omitted]SPVYSNSSVRNELPMHHNSSRKSTKKTNQSSKNIRKKTIPLKRQKTATKGNQRVQKFLNAEGS"
3,binds,"^MBPCENP-C^721-C (domain or fragment, CENP-C, […] (721 to the C-terminus); The methods say that it dimerizes; also called CENP-C^[…]; source: plasmid as previously described; purified (HisTrap, heparin, SEC on Superose 6); not shown: MBP, N-terminal, kept) not shown"

# From publication PMC11912937 (The Journal of Cell Biology, 2025)
